In ChEMBL document CHEMBL4888484, “Replenishing the malaria drug discovery pipeline: Screening and hit evaluation of the MMV Hit Generation Library 1 (HGL1) against asexual blood stage Plasmodium falciparum ,using a nano luciferase reporter read-out” (2022):
About 540 (0.36%) of roughly 150,000 compounds showed an effect of 50% or more. The list shows a part of the results.

Each compound was assayed on Plasmodium falciparum (assay: Primary screen in NF54 nanoGlo assay, in single point, at 2uM, 72h; a lower Z score goes with more inhibition). Conditions: timepoint 72 hour.
Assay type: functional, Erythrocyte

| SMILES | % Inhibition [%] | Z score |
| --- | --- | --- |
| Cc1cc(NC(=O)c2cn3c4c(c(N5CCN(C)CC5)c(F)cc4c2=O)OC[C@@H]3C)nn1C | 3 | -0.44 |
| COCCc1ncc(-c2c(-c3ccccc3)ncn2CCC(=O)O)cn1 | 4 | -0.56 |
| Cc1ccccc1Cn1ncnc1[C@H]1CC12CCNCC2 | -27 | 2.72 |
| CC(C)[C@H](OC(=O)CCn1nc2ccccn2c1=O)c1nccn1C | 1 | -0.11 |
| CCCc1cc(N2CCO[C@H](c3ccccc3F)C2)n2ncnc2n1 | -6 | 0.63 |
| Cc1ccc(C2=NO[C@@H](CN(Cc3cccc(Cl)c3)C(=O)C3CCC3)C2)cc1 | -20 | 3.73 |
| Cc1noc(C)c1CC(=O)N1CCC(n2c(=O)[nH]c3ccccc3c2=O)CC1 | 10 | -1.24 |
| CCn1cc(-c2cc(O)cc(CC[C@H]3CCCCN3)c2)c(C)n1 | 3 | -0.45 |
| Cc1cc(OCC(=O)NC2CCCCCC2)nnc1C | -15 | 1.4 |
| Cc1nc([C@H](C)n2ccnc2-c2nc3ccccc3[nH]2)cs1 | -4 | 0.68 |
| O=c1c2c(ncn1Cc1cccc(F)c1OC(F)F)CCOC2 | 3 | -0.49 |
| C=CCOC1C[C@](OCc2cccc(OC)c2)(C(=O)NCCOC)C[C@H]2OC(C)(C)O[C@@H]12 (stereo partly specified) | -9 | 1.65 |
| CN(CCN1CCCC1=O)C(=O)Nc1ccc(Cl)cc1Cl | -12 | 1.23 |
| Cc1c(Cl)cccc1N1CC[C@@H](C(=O)NCC2CC2)C1=O | 4 | -0.8 |
| Cc1cccnc1CC(=O)NCC1(CN2CCN(C)CC2)CC1 | -3 | 0.68 |
| CCc1ccc(NC(=O)Cn2nc3c(Oc4ccc(C(C)C)cc4)nccn3c2=O)cc1 | -15 | 1.49 |
| Cc1cnn(C)c1S(=O)(=O)N1CCN(Cc2nccn2C(F)F)CC1 | -14 | 1.82 |
| CC(C)n1nccc1C(=O)N(C)Cc1ncc[nH]1 | -1 | 0.16 |
| C[C@@H](CN(C)Cc1nccs1)c1ccccc1 | -24 | 2.39 |
| Cc1cc(F)cc2c1N(C(=O)c1ccc(Cn3ccnn3)o1)CCC2 | -4 | 0.4 |
| CCCn1cnc(NC(=O)NCCc2nc(C)c(Cl)s2)n1 | -1 | 0.07 |
| CC(C)c1ccc(-c2cc(C(=O)N3CCCc4ccccc43)c3cc(Br)ccc3n2)cc1 | -44 | 5.12 |
| CCN(CC)Cc1oc(C(C)(C)C)cc1C(=O)O | -18 | 2.34 |
| O=C(Cn1cnnn1)N1CCN(Cc2ccc(Oc3ccccc3)o2)CC1 | -1 | 0.18 |
| O=C1CCCc2[nH]c(=O)c(C(=O)N[C@@H](Cc3ccccc3)c3ccccc3)cc21 | -4 | 0.49 |
| Cc1cc(Br)cc(C(=O)N(C)C2CC[S+]([O-])CC2)c1 (stereo unspecified) | -1 | 0.19 |
| CC(=O)NCCNC(=O)c1ccc2c(c1)n(CC1CC1)c(=O)n2C1CCCCC1 | 6 | -1.29 |

| SMILES | % Inhibition [%] | Z score |
| --- | --- | --- |
| Cc1nsc2ncc(C(=O)N3CCCCC3)c(N3CCC(C(=O)Nc4cc(F)ccc4F)CC3)c12 | 5 | -0.78 |
| Cc1nnc(NC(=O)c2cc(-c3ccc(F)cc3)c[nH]2)s1 | -15 | 2.23 |
| S=C1OCCN1CN1CCN(c2ncccn2)CC1 | -9 | 1.35 |
| Cc1c([C@H]2CCOC(C)(C)C2)nc(N)c(C#N)c1C1CCNCC1 | -15 | 1.34 |
| CC(C)=CCN1CCC(NC(=O)COC[C@H]2CCCO2)CC1 | -4 | 0.51 |
| COCC1(CNCc2cccc(-c3ccco3)c2)CCC1 | 17 | -3.48 |
| COc1cccc([C@@H]2Cn3nnc(-c4nc(-c5ccccc5F)no4)c3CO2)c1 | -24 | 2.25 |
| Cc1ccccc1OC1CCCCC1NC(=O)N(C)Cc1cn(C)nn1 (stereo unspecified) | -10 | 0.96 |
| O=C(NCC1CC1)N[C@H]1CCN(C(=O)COc2ccccc2)C1 | -4 | 0.54 |
| CCn1nccc1CCN1CCOC2CCCCC21 (stereo unspecified) | 6 | -0.66 |
| Cc1nnc(N2CC(C(F)(F)F)C2)nc1C | -32 | 3.8 |
| CCCS(=O)(=O)NC1CCN(C(=O)C2C3CCCCC32)C1 (stereo unspecified) | -6 | 0.62 |
| CCN(CC)C(=O)Cn1c([C@H]2CC(=O)N(C3CCCC3)C2)nc2ccccc21 | -6 | 0.9 |
| CO[C@H]1COC[C@@H]1NC(=O)C1CN(Cc2ccccc2)CCC1(F)F (stereo partly specified) | -7 | 1.37 |
| CCC[C@@H](C(=O)O)n1ccc(NC(=O)c2cncc3sccc23)n1 | -15 | 1.35 |
| CNc1cc([C@H]2C[C@@H](NS(=O)(=O)c3cc(F)ccc3F)C2)nc(N)n1 | -18 | 1.6 |
| COc1ccc(C2(CC(=O)N3CCCC(O)C3)CC(=O)N(CCC(C)C)C2=O)cc1 (stereo unspecified) | -6 | 1.04 |
| O=C(CC(F)(F)F)N1CCN(Cc2cccc3[nH]ccc23)CC1 | -9 | 0.96 |
| Cc1ccc(Cn2c(=O)c(C(=O)NCc3ccc4c(c3)OCO4)nn(-c3ccc(C(C)C)cc3)c2=O)cc1 | 37 | -5.64 |
| CCc1nn(C)c(CC)c1CC(=O)N[C@@H]1c2ccccc2CC[C@@H]1O | 0 | -0.01 |
| Cc1nn(C2CCCC2)c2c1[C@@H](c1cnc(NC(C)C)nc1)CC(=O)N2 | -19 | 1.83 |
| CNC(=O)C[C@H]1CCN(Cc2sccc2Cl)C1 | -14 | 1.34 |
| CCn1nnc2cc(C(=O)N3CCN(C(c4ccccc4)c4ccccc4)CC3)ccc21 | 32 | -3.63 |
| Cc1cc(-c2nn(-c3ccccc3F)cc2CN(Cc2nccn2C)C(C)C)c(C)s1 | -17 | 3.18 |
| Cn1nnc2c(=O)n(Cc3ccccc3Cl)cnc21 | -10 | 1.62 |
| O=C(Nc1nnc[nH]1)c1cccc(OCc2ccc(F)cc2)c1 | -7 | 0.85 |
